This is one part of the list.

This assay concerns the target T1, OsWOX13 (Oryza sativa, UniProt Q5QMM3 1-267).
T1 sequence: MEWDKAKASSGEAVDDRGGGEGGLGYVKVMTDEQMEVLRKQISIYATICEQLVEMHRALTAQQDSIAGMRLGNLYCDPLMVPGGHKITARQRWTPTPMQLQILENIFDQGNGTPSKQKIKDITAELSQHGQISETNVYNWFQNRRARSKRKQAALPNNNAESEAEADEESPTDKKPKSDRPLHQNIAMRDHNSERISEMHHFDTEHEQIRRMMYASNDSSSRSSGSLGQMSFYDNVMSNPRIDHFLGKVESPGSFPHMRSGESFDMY
Description: protein-binding microarray (RPBM); PBS, 2% BSA, 51.3 ng/ul salmon testes DNA, 50 uM zinc acetate, 200 nM TF, 25 C, 1 h; high values mean tight binding. To be noted: protein: recombinant; tags: N-terminal polyhistidine and DsRed monomer fusion (pET32a); label: CyDye5-dUTP incorporated in the synthesized complementary strand; 3' TTTTT single-stranded linker to array surface; dsDNA, one strand shown. The procedure, abridged: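 Transcription factors, each fused N-terminally to a polyhistidine tag and DsRed, were expressed in E. coli BL21-CodonPlus and purified on Ni–NTA. A custom Agilent array was made double-stranded by primer extension with Cy5-dUTP and blocked with 2% BSA. It was incubated with 200 nM protein in PBS, 2% BSA, salmon testes DNA and 50 µM zinc acetate at 25 °C for 1 h, then washed. The binding signal is per-feature fluorescence intensity (arbitrary units) read on an Axon 4000B scanner.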
For “CTTAATTAAGTCACCATAAACACGGCGCGCCATTAGGGGACGGAGTCACCTAGTGCAG”, the binding signal was 21300 fluorescence intensity (a.u.). “CATCATTTCAATTTCAATTAAACTTTTAATTTTAGCGTGACGGAGTCACCTAGTGCAG”: the binding signal is 7710 fluorescence intensity (a.u.). Next, “GACTAATCACAATGCATACGTCAGATGAAGCGTGCGTAGCCGGAGTCACCTAGTGCAG”: 5180 fluorescence intensity (a.u.). Next, “CTAGATTGTTGGTGTTGTGGGGTCAGGCTAAGCTACAAGTCGGAGTCACCTAGTGCAG”: 15100 fluorescence intensity (a.u.); “TCTGCATTTATTAATAATTTTATAGATGAATAAATAGGTTCGGAGTCACCTAGTGCAG”: 3750 fluorescence intensity (a.u.); “TACTACCAAATTGCAAATCACAAATTGAATGCTATCAGATCGGAGTCACCTAGTGCAG”: 29900 fluorescence intensity (a.u.). Then “TAATAATTAATGGTATCATAAATAGAAAATAGAAAGCATGCGGAGTCACCTAGTGCAG”, with 24300 fluorescence intensity (a.u.); and “CTTCTTCAATCCAGCTAATTAATTACACACACCTGACACACGGAGTCACCTAGTGCAG”, with 27200 fluorescence intensity (a.u.); and “CGACAAAATTTATTTAGAGTGCTTCTAATGCATTTGTAACCGGAGTCACCTAGTGCAG”, with 3590 fluorescence intensity (a.u.). Turning to “AATTAATTGATAAAAGAGTACTAGCACGCAGTAACAATATCGGAGTCACCTAGTGCAG”, the binding signal is 10300 fluorescence intensity (a.u.). Then “TGATGATGACATGCTGATCGGTTCATCTGTAAACGAGTGTCGGAGTCACCTAGTGCAG”, with 4170 fluorescence intensity (a.u.).

As for “GTAGATGACTAATCATTGCACCATTCTCCATTTATAGCATCGGAGTCACCTAGTGCAG”, the binding signal was 15800 fluorescence intensity (a.u.).

On to “GCAAATGAGGACAATCATTGATGGTAAGCTTGGTAAGACTCGGAGTCACCTAGTGCAG”, for which the binding signal was 16000 fluorescence intensity (a.u.). For “CTAATTACGTCATGATTTGACAATGTGGTGTGGTGCTACACGGAGTCACCTAGTGCAG”, the binding signal was 37500 fluorescence intensity (a.u.).

As for “CCCAAAATATATGTGACTGATACGTGGGTCCCATTGACACCGGAGTCACCTAGTGCAG”, the binding signal is 4590 fluorescence intensity (a.u.). With “TTGATTGGCAAGCCATGGTGCACGTACGCCACGGCAATGACGGAGTCACCTAGTGCAG”, the binding signal was 34600 fluorescence intensity (a.u.).

As for “CCATAATGATTTTACTGTTACTGGGATGGCAATATCTTTCCGGAGTCACCTAGTGCAG”, the binding signal is 17700 fluorescence intensity (a.u.). Then “TCCCTCTGATTTCATTTTAATTGACGTTTTGGACAATGACCGGAGTCACCTAGTGCAG”, with 43400 fluorescence intensity (a.u.); and “TTTAGAATTCATTTAATTTAATGCGATTTAAAATTTAAAACGGAGTCACCTAGTGCAG”, with 4410 fluorescence intensity (a.u.); and “TTTAATTCCAATCTACGAACTGGGCCAAGAATAAATATGGCGGAGTCACCTAGTGCAG”, with 14000 fluorescence intensity (a.u.). Next, “AAAATTGAATAAGACGAGTGGTCAAACGTTGCAAGCAAAACGGAGTCACCTAGTGCAG”: 6750 fluorescence intensity (a.u.); “AATTTCAATCAAACTTTCAATTTTGACGTGAAGTAAACCCCGGAGTCACCTAGTGCAG”: 21500 fluorescence intensity (a.u.); “AATATTTATAATTAATTTTCAAACATCCGATGTGATAGGGCGGAGTCACCTAGTGCAG”: 21500 fluorescence intensity (a.u.). Then “AATATTGACATAACCAATTTATCTGAACATAGAGTTGTTGCGGAGTCACCTAGTGCAG”, with 17400 fluorescence intensity (a.u.); and “AATTTGACAGATGTAATTATAGTACAATCGTAGTGTAATTCGGAGTCACCTAGTGCAG”, with 30000 fluorescence intensity (a.u.); and “AAGATGTCATCACAAATCTATCACACTGGCCCTGATAGCCCGGAGTCACCTAGTGCAG”, with 5410 fluorescence intensity (a.u.).

With “AGTTGATTTGTCGAATATGAGCTTAAAGTTGCCTCTACCGCGGAGTCACCTAGTGCAG”, the binding signal is 23500 fluorescence intensity (a.u.). Next, “TTTTGATTTTGTGAGGATTCATCTCACATGCACGCACTAGCGGAGTCACCTAGTGCAG”: 4120 fluorescence intensity (a.u.). Next, “TGTGACAGGAGAATTCCTCACATCTCCTGGGTGTGTTCGTCGGAGTCACCTAGTGCAG”: 9490 fluorescence intensity (a.u.); “GCCAACTGTTGATTACCGGGTGCGCGCCCGCGCGATTCACCGGAGTCACCTAGTGCAG”: 6680 fluorescence intensity (a.u.); “ATAAATTGATGCGATAAATCTCAGCTAAATTACTGTACTTCGGAGTCACCTAGTGCAG”: 36900 fluorescence intensity (a.u.). Take “GGGATTATTATAATCCAGATTATTGAGAGTAAGCTGAAAGCGGAGTCACCTAGTGCAG”: the binding signal was 5050 fluorescence intensity (a.u.). Next, “TATCCTGATTTTATGATTGTATCTCGATTATATGATATGACGGAGTCACCTAGTGCAG”: 18700 fluorescence intensity (a.u.).

“AAACCCATATAATTGGCAATCTACTCAGGATGACAATGCTCGGAGTCACCTAGTGCAG”: the binding signal is 28800 fluorescence intensity (a.u.). For the sequence “TCTGGTAATTTATTGTCCTCATCTATTGCAGGAAGTTGCACGGAGTCACCTAGTGCAG”, the binding signal is 17800 fluorescence intensity (a.u.).

With “ACACCAATGTTAATTGTTAATTGTTAGCCTGTCAATATAGCGGAGTCACCTAGTGCAG”, the binding signal was 25500 fluorescence intensity (a.u.).

Take “GTTAAATGGCTAAATGACTCATTTAATTCGCATTAGTGATCGGAGTCACCTAGTGCAG”: the binding signal is 30000 fluorescence intensity (a.u.).

As to “TAACAACAAAACAAATTATAGATTTTGTATGTAAACTGTGCGGAGTCACCTAGTGCAG”, the binding signal was 3590 fluorescence intensity (a.u.).

For “TTAATTAGGCTTAATAAATTCGTCTCGCAGTTTCCTGACGCGGAGTCACCTAGTGCAG”, the binding signal was 6150 fluorescence intensity (a.u.). With “GGTCCAATCAACATGAATAACAAAACAAAGGAAATGGATTCGGAGTCACCTAGTGCAG”, the binding signal is 17100 fluorescence intensity (a.u.).

For the sequence “TTTTCTTTCTTGATTGGGAAGGAAATTGGTGGTTAATCTCCGGAGTCACCTAGTGCAG”, the binding signal is 23700 fluorescence intensity (a.u.). “GTAATAAATAAATAAATTAAAAGAGACAGTGTAATTATTCCGGAGTCACCTAGTGCAG”: the binding signal is 4790 fluorescence intensity (a.u.).
